According to PubChem BioAssay AID1461 (National Center for Advancing Translational Sciences (NCATS), 2008):
Out of some 220,000 compounds screened, about 2,300 (1%) were called active. This list was built around the results that the source calls inconclusive (neither active nor inactive); the mix of calls is not that of the screen. Calls come from the whole dose curve; as a rule, active = well fitted inhibition curve with a large enough effect; inconclusive = small, poorly fitted or top-dose-only effect, or effect the other way; inactive = no such curve, though single readings can be large or run the other way. Potencies of inconclusive entries are left out as doubtful fits.

biological target: Neuropeptide S receptor (Homo sapiens) (UniProt Q6W5P4); assay: qHTS Assay for Antagonists of the Neuropeptide S Receptor: cAMP Signal Transduction; details: CHO-NPSR cells, cAMP TR-FRET, antagonist mode; activity change, negative = inhibition: at 38.3 µM (top of the series) unless noted; note: nearly all actives have a fitted effect of over 50% in size
Chain of UniProt Q6W5P4 (Q6W5P4 whole entry, looked up): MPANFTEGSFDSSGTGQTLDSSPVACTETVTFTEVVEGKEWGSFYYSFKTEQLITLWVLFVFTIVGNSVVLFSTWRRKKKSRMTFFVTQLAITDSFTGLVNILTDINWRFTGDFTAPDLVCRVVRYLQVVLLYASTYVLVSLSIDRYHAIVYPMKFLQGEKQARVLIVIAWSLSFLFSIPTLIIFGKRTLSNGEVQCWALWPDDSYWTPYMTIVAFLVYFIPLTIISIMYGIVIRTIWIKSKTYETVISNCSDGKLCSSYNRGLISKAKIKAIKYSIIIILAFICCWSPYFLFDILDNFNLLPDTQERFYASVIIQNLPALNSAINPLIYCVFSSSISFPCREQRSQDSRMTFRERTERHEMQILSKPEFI
% is set by controls: 0 for no effect and ±100 for the full control effect; potency is the fitted concentration of half-maximal effect; tags give direction and shape of the fitted curve.

Row | SMILES | Potency | activity change, negative = inhibition
1 | CC(=O)c1nnn(-c2cccc([N+](=O)[O-])c2)c1C | inactive | –
2 | O=C(NC(C(=O)N/N=C/c1cccc2ccccc12)c1n[nH]c(=O)c2ccccc12)c1ccccc1 (stereo not drawn) | inconclusive [inhibitor, single point] | –
3 | Cc1cc(C)c(S(=O)(=O)c2ccccc2)c(OC(=O)c2cc(F)c(F)cc2Cl)n1 | inconclusive [inhibitor, single point] | –
4 | CC(=O)N1CCCN(Cc2cn(-c3cccc(C)c3)nc2-c2cccc(F)c2)CC1 | inactive | –
5 | Cc1ccc(N(CCCCN2C(=O)c3ccccc3C2=O)C(=O)c2cccs2)cc1 | inconclusive [inhibitor, single point] | –
6 | CSCCC1(C(=O)O)NC(c2ccccc2O)C2C(=O)N(C(C)C)C(=O)C21 (stereo not drawn) | inactive | –
7 | CCC(=O)N1CCc2cc(S(=O)(=O)CCC(=O)Nc3ccc(C)c(F)c3)ccc21 | inconclusive [inhibitor, single point] | –
8 | O=C(NC(c1ccc(Cl)cc1)c1c(O)ccc2ccccc12)c1ccccc1 (stereo not drawn) | inconclusive [inhibitor, single point] | –
9 | Cc1ccc(C(=O)CSC2=C(C#N)C(c3ccco3)C3=C(CCCC3=O)N2)cc1 (stereo not drawn) | inactive | –
10 | CN1CC(c2ccccc2)C2(COc3ccccc3C2=O)C12C(=O)Nc1ccccc12 (stereo not drawn) | inconclusive [inhibitor, partial curve] | –
11 | O=C(CSc1ncccn1)N/N=C/c1cccc(OC2CSC2)c1 | inactive | –
12 | S=c1[nH]nc(-c2cc(-c3ccccc3)n[nH]2)n1/N=C/c1c(Cl)cccc1Cl | inconclusive [activator, single point] | –
13 | COc1ccc(/C=N/NC(=O)c2ccccc2OCc2ccccc2)c(OC)c1 | inconclusive [inhibitor, single point] | –
14 | CSc1ccc2c(c1)C(N1CCN(C)CC1)Cc1ccccc1S2 (stereo not drawn) | inconclusive [activator, single point] | –
15 | CC(C)CC(c1nnnn1C1CCCCC1)N1CCN(c2ncccn2)CC1 (stereo not drawn) | inconclusive [inhibitor, single point] | –
16 | Cc1ccc(-c2ccc(CCC(=O)O)o2)cc1 | inactive | –
17 | CC1=[N+](C)N(c2ccccc2)C(=O)C1N=C/C=C/c1ccccc1 (stereo not drawn) | inactive | –
18 | COc1ccc(CCn2c(-c3ccccc3)nc3c(c(=O)c4ccccc4n3C)c2=O)cc1 | inconclusive [inhibitor, single point] | –
19 | CC1(C)Cc2c(C#N)c(SCc3nc4ccccc4[nH]3)nc(N3CCOCC3)c2CO1 | inconclusive [inhibitor, partial curve] | –
20 | O=S(=O)(Nc1nc2c(s1)CCCC2)c1ccc(F)cc1 | inactive | –
21 | CCOC(=O)c1c(-c2cccs2)csc1NC(=O)CN(CC)CC | inconclusive [inhibitor, partial curve] | –
22 | CC(=O)Nc1ccc(S(=O)(=O)Nc2nc3cc4c(cc3nc2Cl)OCCO4)cc1 | inconclusive [activator, single point] | –
23 | CCS(=O)(=O)c1cc([N+](=O)[O-])c(Sc2ccccc2NC(C)=O)s1 | inconclusive [inhibitor, single point] | –

Row | SMILES | Potency | activity change, negative = inhibition
24 | O=C(Nc1ccc(F)cc1)C(=O)c1c(O)[nH]c2ccc([N+](=O)[O-])cc12 | inactive | –
25 | COc1cccc(C2=CC(c3cccc(OC)c3OC)n3nnnc3N2)c1 (stereo not drawn) | inconclusive [inhibitor, partial curve, poor fit] | –
26 | Cn1c(=O)c2c(nc(N3CCCCC3)n2CCSc2nc3ccccc3s2)n(C)c1=O | inactive | –
27 | CC(=O)Nc1cccc(OCC(=O)Nc2ccc(F)cc2)c1 | inactive | –
28 | CN(C)c1ccc(-c2nnn(Cc3ccccc3Br)n2)cc1 | inconclusive [inhibitor, single point] | –
29 | COc1cccc(Cl)c1NC(=O)N1CCc2c([nH]c3ccccc23)C1C(F)(F)F (stereo not drawn) | inconclusive [activator, single point] | –
30 | CC1C/C(=C\c2cccnc2)C(=O)/C(=C/c2cccnc2)C1 (stereo not drawn) | inactive | –
31 | CCOC(=O)C1(Cc2ccc(OC)cc2)CCN(C(=O)c2cccc3nccnc23)CC1 | inconclusive [activator, single point] | –
32 | Cc1cccc(NC(=O)N2CCCC2C(=O)NCc2cccs2)c1 (stereo not drawn) | inconclusive [activator, partial curve] | –
33 | O=C(NCS(=O)(=O)c1ccccc1)c1ccccc1 | inactive | –
34 | O=C(NNC(=O)c1ccc(Oc2cc(Cl)cc(Cl)c2)o1)c1ccccc1 | inconclusive [activator, single point] | –
35 | COC(=O)C(NS(=O)(=O)c1ccc(C)cc1)c1ccccc1 (stereo not drawn) | inactive | –
36 | COc1cc(C(=O)NCC(=O)N/N=C/c2ccccn2)cc(OC)c1OC | inactive | –
37 | C[C@@H]1CC=C[C@H]2[C@H]1C(=O)N(Cc1ccccc1)[C@H]2c1ccc(F)c(-c2ccc(N(C)C)cc2)c1 | inconclusive [inhibitor, single point] | –
38 | O=C(COc1cccc(Cl)c1)Nc1nc(-c2ccc(S(=O)(=O)N3CCOCC3)cc2)cs1 | inconclusive [inhibitor, partial curve, poor fit] | –
39 | COc1ccc(C(=O)CC(Nc2ccc([N+](=O)[O-])cc2)c2ccc(Cl)cc2)cc1 (stereo not drawn) | inconclusive [inhibitor, partial curve] | –
40 | Cc1sc2nc3c4ccccc4c(NCc4ccco4)nn3c(=O)c2c1C | inconclusive [inhibitor, single point] | –
41 | Cc1cc(C(C)(C)C)c(O)c(C)c1CC1=NCCN1 | inconclusive [inhibitor, single point] | –
42 | O=c1c2ccccc2c(-c2ccccc2)nn1Cc1ccccc1 | inactive | –
43 | O=C(CC1SC(=Nc2ccc3c(c2)OCCO3)NC1=O)Nc1ccc(F)cc1F (stereo not drawn) | inactive | –
44 | COC(=O)c1sccc1NC(=O)CSc1nnnn1-c1ccccc1F | inconclusive [inhibitor, single point] | –
45 | Cc1cc(C)n(C(=O)c2ccccc2[N+](=O)[O-])n1 | inactive | –
46 | CC1C=CC(C)C(C(=O)O)C1C(=O)O (stereo not drawn) | inactive | –

Row | SMILES | Potency | activity change, negative = inhibition
47 | Cc1cc(C)n(C(=O)c2ccc(C)c(S(=O)(=O)N3CCCC3)c2)n1 | inconclusive [activator, single point] | –
48 | CCCCN(CCCNC(=O)C1CCN(S(=O)(=O)CC)CC1)c1ccccc1 | inconclusive [activator, partial curve] | –
49 | Cc1cc(N/N=C/c2cccc(Cl)c2)nc(NCc2ccccc2)n1 | inconclusive [inhibitor, single point] | –
50 | CN(C)CCCN1c2ccccc2Sc2ccccc21 | inconclusive [inhibitor, single point] | –
51 | CCCN(CCC)CCCNC(=O)c1cn(CC)c2ccc(S(=O)(=O)N3CCc4ccccc4C3)cc2c1=O | inconclusive [inhibitor, single point] | –
52 | COc1ccc(-c2nnc3sc(COc4ccccc4)nn23)cc1 | inconclusive [inhibitor, single point] | –
53 | O=C(N/N=C/c1ccc2nccnc2c1)c1cccc([N+](=O)[O-])c1 | inconclusive [inhibitor, single point] | –
54 | Cn1cccc1/C=C1\SC(=Nc2ccc(O)cc2)NC1=O | inactive | –
55 | Nc1[nH]n2c(=O)c3c(nc2c1N=Nc1ccccc1)CCCC3 | inconclusive [inhibitor, partial curve] | –
56 | COc1ccc(C2C(=O)N(C3CCCCC3)CC(=O)N2C2CCCCC2)cc1 (stereo not drawn) | inconclusive [inhibitor, single point] | –
57 | CCN1CCc2c(C#N)c(NCc3ccccc3)nc(N(CC)CC)c2C1 | inconclusive [inhibitor, partial curve] | –
58 | O=C(CSc1nc2ccccc2s1)N1c2ccccc2Sc2ccccc21 | inconclusive [inhibitor, partial curve, poor fit] | –
59 | Cc1ccc2cc(C(c3nnnn3C3CCCC3)N(Cc3ccco3)Cc3cccs3)c(=O)[nH]c2c1 (stereo not drawn) | inconclusive [inhibitor, partial curve, poor fit] | –
60 | CCOC(=O)c1sc(=NC(=O)c2ccc(OC)c(OC)c2)n(C)c1C | inconclusive [activator, single point] | –
61 | Cc1cnc(NC(=O)/C=C/c2ccc(Br)o2)s1 | – | inactive: 1.36% [at 7.67 µM]
62 | O=C(CSc1nc2ccccc2nc1SCC(=O)N1CCCCC1)N1CCCCC1 | inconclusive [inhibitor, single point] | –
63 | COc1ccc(-c2csc3ncnc(Cl)c23)cc1 | inconclusive [activator, single point] | –
64 | COCCN(C(=O)Cc1cccs1)C(C(=O)NCc1ccc(OC)cc1)c1ccc(C(C)C)cc1 (stereo not drawn) | inconclusive [activator, single point] | –
65 | C[C@H](NC(=O)c1nc[nH]c1C(=O)NCc1ccc(CNC(=O)OC(C)(C)C)cc1)C(=O)OC(C)(C)C | inconclusive [activator, single point] | –
66 | O=C(CN(C(=O)c1ccccc1Cl)C1CCCCC1)Nc1ccc(Cl)c([N+](=O)[O-])c1 | inconclusive [inhibitor, partial curve] | –
67 | O=C(O)CCSc1ccc2ccccc2n1 | inconclusive [activator, partial curve] | –
68 | CCOc1cc(CNc2ccc(Br)cc2)cc(Br)c1OCC(=O)NC(C)(C)C | inconclusive [inhibitor, single point] | –
